In all, about 50,000 compounds went through this assay and about 800 (1.6%) showed an effect of 50% or more. The list shows a part of the results.

The target in this test is Bcl-2-like protein 10 (Homo sapiens) (UniProt Q9HD36). Briefly: TR3 peptide-Bcl-B binding displacers, biochemical primary FP assay, phenotype converters (AID 1240).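 Further: 0% = Bcl-B with tracer peptide and DMSO and 100% = tracer peptide lacking Bcl-B.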 Conditions: GST-Bcl-B / FITC-TR3 peptide fluorescence polarization; stronger effect = higher value; compound at 3.75 mg/L.
UniProt Q9HD36, sequence (Q9HD36 whole entry, looked up): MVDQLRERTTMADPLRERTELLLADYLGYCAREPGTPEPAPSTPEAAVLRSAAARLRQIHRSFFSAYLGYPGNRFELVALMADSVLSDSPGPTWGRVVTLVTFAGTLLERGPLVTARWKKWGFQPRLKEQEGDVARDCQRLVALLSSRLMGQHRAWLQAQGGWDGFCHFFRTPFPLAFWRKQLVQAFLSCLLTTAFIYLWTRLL
On to `O=C(c1ccccc1O)N1N=C(c2ccc(F)cc2)CC1(O)C(F)(F)F` (stereo not given), for which the displacement worked out at 6.1%.

As for `CC/C(=N\N1CCN(Cc2ccc(Cl)cc2)CC1)c1ccc(O)cc1`, the displacement was -5.8%. The result for `Cc1cc(C)cc(OCCCN2CCN(C)CC2)c1` reads -12.3%.

Turning to `CC(=O)Oc1ccc(/C=C2\C=C(c3ccc(C)cc3)OC2=O)c(OC(C)=O)c1`, the displacement is -10.2%. With `C(=N/Nc1nc2ccccc2o1)/c1ccc(N2CCOCC2)cc1`, the displacement worked out at 8.6%.

Regarding `O=C(Nc1cccnc1)C1(c2ccccc2)CCCC1`, the displacement was -3.2%. In the case of `CCN(CC)c1ccc(N=Cc2c(O)n(C)c(=S)n(C)c2=O)cc1` it was -18.4%; in that of `O=c1[nH]c2ccccc2c(O)c1-c1ccccc1[N+](=O)[O-]`, -1.5%.

Turning to `COc1cc(/C=C2/C(=O)NC(=O)N(C)C2=O)ccc1OCC(=O)O`, the displacement is -22%. In the case of `CC(C)(C)NC(=O)c1cnn(-c2ccccc2)c1NC(=O)c1ccccc1` it was 1.8%; in that of `Cc1ccc(-c2csc(Nc3cccc4ccccc34)n2)cc1C`, 10%; in that of `CCNC(=O)N1c2cc(C)ccc2C(C)=CC1(C)C`, -9.9%. The result for `COc1ccc2nc(SC)nc(C)c2c1` reads 10.5%. The result for `O=C(N/N=C/c1ccccc1[N+](=O)[O-])c1cccc(Cl)c1` reads -7.2%; that for `CC(O)c1cccc(NC(=O)c2cc3n(n2)C(C(F)(F)F)CC(c2ccc(F)cc2)N3)c1` (stereo not given), 6.2%; that for `COCCCNC(=O)COc1ccc(C)cc1`, 11.4%. Take `C(=N\N=C(c1ccccc1)c1ccccc1)/c1ccccn1`: the displacement was -9.6%. The result for `CS(=O)(=O)Nc1ccc(S(=O)(=O)N2CCCCC2)cc1` reads -8.5%; that for `COc1ccc(Br)cc1/C=C/C(=O)c1ccc(Cl)cc1`, 10.8%; that for `C/C(=N\OCC(=O)N/N=C/c1ccc(C)cc1O)c1cccs1`, -4.4%. Turning to `COC(=O)Nc1sc(C)nc1-c1ccccc1`, the displacement is 3.2%.

With `O=C(c1ccc2c(c1)OCCO2)C1CCCCC1`, the displacement was found to be 1.6%.

Take `Cc1cc2c(cc1[N+](=O)[O-])-c1c(ssc1=S)C(C)(C)N2`: the displacement is 41.3%. `Cc1cccc(C(=O)Nc2sc(C)c(C)c2C(N)=O)c1`: the displacement was -10.1%. The result for `CC1(C)CC(=O)C2=C(C1)NC(SCc1ccccc1)=C(C#N)C2c1ccc(Cl)cc1` (stereo not given) reads -21.7%; that for `O=C(Cc1ccccc1)NC(c1ccc(Cl)cc1)c1c(O)ccc2ccccc12` (stereo not given), -11.2%; that for `Cc1ccc(NC(=O)C(C)Sc2ccc(Cl)cc2)c(C)c1` (stereo not given), 1.6%. Take `COc1cccc(NC(=O)C(=O)N/N=C/c2ccc(O)c(OC)c2)c1`: the displacement stood at 7.2%. The result for `COc1ccccc1CN1CCN(Cc2ccccn2)CC1` reads -28.3%; that for `CCOC(=O)c1c(N)sc(C)c1-c1ccc(C(C)(C)C)cc1`, 0%. In the case of `CCOc1ccc(/C=C2/SC(=S)N(C)C2=O)cc1` it was -0.3%; in that of `O=C(CCCOc1ccc(Cl)cc1Cl)NCCCn1ccnc1`, 15.5%. In the case of `O=C1CC(Nc2ccc(N3CCOCC3)cc2)C(=O)N1c1ccccc1F` (stereo not given) it was 1.4%; in that of `CCOC(=O)N1CCN(C(=O)/C(=C\c2cccs2)NC(=O)c2cccs2)CC1`, 0.8%.

Turning to `CC(NC(=O)c1cccc2ccccc12)C(=O)O` (stereo not given), the displacement came to 17.4%. The result for `O=S(=O)(c1ccc(Br)c2ccccc12)N1CCCc2ccccc21` reads 2.5%; that for `COc1cc(C(=O)Nc2ccc(C)c(Cl)c2)cc(OC)c1OC`, 1.9%.

As for `CCOc1ccccc1NC(=O)C(=O)NCC1CCCO1` (stereo not given), the displacement came to 15.3%. In the case of `CCCN1C(=O)c2cccc3c(S(=O)(=O)N(C)C)ccc1c23` it was -1%.

`CC1(C)CC(=O)C=C(NNC(=O)c2ccc(O)cc2)C1`: the displacement came out at 18.2%. In the case of `O=C(NCc1ccc(Cl)cc1)C(=O)NN=C1CCCCC1` it was 8.7%. With `CCCOC(=O)c1c(NC(=O)c2cccc(OCC)c2)sc2c1CCC2`, the displacement is 22.8%. The result for `Cc1ccc(NC2CC(=O)N(c3ccc(C)cc3)C2=O)cc1` (stereo not given) reads 8.6%; that for `Cc1cc(OCC(=O)Nc2cc(Cl)ccc2Cl)ccc1Br`, -5.1%; that for `Cc1ccc(C(=O)N/C(=C\c2cccs2)C(=O)NCC(C)C)cc1`, 9.3%. Take `O=C(O)C1C2C=CC(C2)C1C(=O)Nc1ccc(Br)cc1F` (stereo not given): the displacement turned out to be 9.1%. The result for `O=C(COc1ccccc1[N+](=O)[O-])NCc1ccco1` reads 0.1%; that for `O=S(=O)(NCc1ccco1)c1ccc(Cl)c(Cl)c1`, 10%.

As for `CCc1ccc(S(=O)(=O)Nc2ccc(OC(=O)c3ccc(Cl)cc3)cc2)cc1`, the displacement was -1.9%. In the case of `CCCCN(CC)c1cnn(-c2ccccc2)c(=O)c1N` it was 10.6%; in that of `COc1ccc(/C=N/NC(=O)c2ccncc2)cc1Br`, 12%; in that of `CC1=C(C(=O)OC(C)C)C(c2ccccc2F)NC(=S)N1` (stereo not given), 2%.

Consider `Cc1ccc(/C=N/NC(=O)C(O)c2ccccc2)cc1` (stereo not given), for which the displacement is 7.5%. In the case of `Cc1oc2ccc(OCC(=O)c3ccccc3)cc2c1C(=O)O` it was 6.8%. The result for `O=C(Cc1ccc(Br)cc1)Nc1ccc(F)cc1` reads 3.3%. Regarding `CC1=Nc2ccccc2/C1=C\c1sc(=S)n(-c2cccc(F)c2)c1O`, the displacement was -1.7%. In the case of `COc1ccc(C(=O)Nc2ccc(Br)cn2)cc1OC` it was 5.1%; in that of `COC(=O)c1sc(NC(=O)c2sc3cc(C)ccc3c2Cl)c(C#N)c1C`, -0.9%. In the case of `CCC(=O)Nc1ccc(NC(=O)c2cc(OC)c(OC)c(OC)c2)cc1` it was -9.7%; in that of `COc1ccc(C(=O)Oc2cccc3c(OC)ccc(C=O)c23)cc1`, 8.1%. In the case of `CCOC(=O)c1cccc(NC(=O)COc2ccc([N+](=O)[O-])cc2)c1` it was 8.1%; in that of `Cc1c(C(=O)O/N=C(\N)c2ccccn2)cccc1[N+](=O)[O-]`, 13%. For the compound `CCOc1ccc(C2/C(=C(\O)c3ccccc3)C(=O)C(=O)N2CCCC(=O)O)cc1` (stereo not given), the displacement is -19.8%.

Turning to `COc1ccc(/C=C2\SC(=S)N(CC(=O)Nc3ncc(Cc4ccc(C)cc4)s3)C2=O)cc1OC`, the displacement was determined as 1.3%.

For the compound `Cc1ccccc1N(CC(=O)Nc1ccc([N+](=O)[O-])cc1)S(C)(=O)=O`, the displacement is -4.6%. Take `O=C1C=C/C(=N\S(=O)(=O)c2ccccc2)C=C1Cl`: the displacement stood at 29.2%. In the case of `Cc1ccc(/C=C2\SC(=S)N(c3ccc(F)cc3)C2=O)cc1` it was 16.2%. Turning to `Cc1oc2ccc(OC(C)C(=O)O)cc2c1C(=O)O` (stereo not given), the displacement came to 14.7%. In the case of `CC(/C=N/NC(=O)c1cccnc1)c1ccccc1` (stereo not given) it was 7.7%; in that of `CC(C)Cc1ccc(C(C)C(=O)Nc2ccc(O)cc2)cc1` (stereo not given), 16.4%. In the case of `CC1CCN(Cn2cnn(CN3CCC(C)CC3)c2=S)CC1` it was 10.7%; in that of `CC(=O)Nc1ccc(N2CCN(C(C)=O)CC2)cc1`, 9.1%. `Cc1ccc(-c2nc3ncccc3o2)cc1NC(=O)c1cccc(Cl)c1Cl`: the displacement was found to be 1.2%. The result for `Cc1c(Cl)cccc1NC(=O)CCCOc1ccccc1` reads -5.1%; that for `Cc1ccc(NC(=O)/C(=C\c2ccc([N+](=O)[O-])o2)NC(=O)c2ccccc2I)cc1`, -10.6%.

The values are drawn from PubChem BioAssay AID1240 (Sanford-Burnham Center for Chemical Genomics, 2008).
